Data reported in the supplement of paper PMC8728848.
This is one part of the list.

Assays:
Assay in all cases: glycan array binding signal (z-score within array); higher = stronger binding
Settings in all cases: glycan notation: IUPAC condensed, linker removed
[1] = biological target: GlcNAc(b1-3)Man
In short: (§1)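 The binding signal is a Z-score computed within each array. Data were drawn from 3228 arrays in the Consortium for Functional Glycomics database, restricted to those with a known protein sequence. Scores were averaged over arrays of the same protein sequence at different concentrations or buffers, and over linkers, and negative values can be taken as non-binding.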

[2] = biological target: GlcNAc(b1-3)[GlcNAc(b1-4)][GlcNAc(b1-6)]GlcNAc
In short: as §1

[3] = biological target: GlcNAc(b1-3)[GlcNAc(b1-6)]Gal(b1-4)GlcNAc
In short: as §1

[4] = biological target: GlcNAc(b1-3)[GlcNAc(b1-6)]GalNAc
In short: as §1

[5] = biological target: GlcNAc(b1-3)[GlcNAc(b1-6)]GlcNAc(b1-4)GlcNAc
In short: as §1

[6] = biological target: GlcNAc(b1-4)Gal(b1-4)GlcNAc
In short: as §1

[7] = biological target: GlcNAc(b1-4)GlcNAc
In short: as §1

[8] = biological target: GlcNAc(b1-4)GlcNAc(b1-4)GlcNAc
In short: as §1

[9] = biological target: GlcNAc(b1-4)GlcNAc(b1-4)GlcNAc(b1-4)GlcNAc(b1-4)GlcNAc
In short: as §1

[10] = biological target: GlcNAc(b1-4)GlcNAc(b1-4)GlcNAc(b1-4)GlcNAc(b1-4)GlcNAc(b1-4)GlcNAc
In short: as §1

[11] = biological target: GlcNAc(b1-4)[GlcNAc(b1-6)]GalNAc
In short: as §1

[12] = biological target: GlcNAc(b1-6)Gal(b1-4)GlcNAc
In short: as §1

[13] = biological target: GlcNAc(b1-6)GalNAc
In short: as §1

[14] = biological target: GlcNAc6S(b1-3)Gal(b1-4)GlcNAc
In short: as §1

[15] = biological target: Kdn(a2-3)Gal(b1-3)GalNAc
In short: as §1

[16] = biological target: Kdn(a2-3)Gal(b1-3)GlcNAc
In short: as §1

[17] = biological target: Kdn(a2-3)Gal(b1-4)Glc
In short: as §1

[18] = biological target: Kdn(a2-3)Gal(b1-4)GlcNAc
In short: as §1

[19] = biological target: Kdn(a2-3)Gal(b1-4)[Fuc(a1-3)]GlcNAc
In short: as §1

[20] = biological target: Kdn(a2-6)Gal(b1-4)GlcNAc
In short: as §1

[21] = biological target: Man(a1-2)Man(a1-2)Man(a1-3)Man
In short: as §1

[22] = biological target: Man(a1-2)Man(a1-2)Man(a1-6)[Man(a1-3)]Man
In short: as §1

[23] = biological target: Man(a1-2)Man(a1-3)Man
In short: as §1

[24] = biological target: Man(a1-2)Man(a1-3)[Man(a1-2)Man(a1-6)]Man
In short: as §1

[25] = biological target: Man(a1-2)Man(a1-3)[Man(a1-2)Man(a1-6)]Man(a1-6)[Man(a1-2)Man(a1-2)Man(a1-3)]Man
In short: as §1

[26] = biological target: Man(a1-2)Man(a1-3)[Man(a1-2)Man(a1-6)]Man(a1-6)[Man(a1-2)Man(a1-2)Man(a1-3)]Man(b1-4)GlcNAc(b1-4)GlcNAc
In short: as §1

[27] = biological target: Man(a1-2)Man(a1-3)[Man(a1-6)]Man(a1-6)[Man(a1-2)Man(a1-3)]Man(b1-4)GlcNAc(b1-4)GlcNAc
In short: as §1

[28] = biological target: Man(a1-2)Man(a1-6)[Man(a1-3)]Man(a1-6)[Man(a1-2)Man(a1-2)Man(a1-3)]Man
In short: as §1

[29] = biological target: Man(a1-2)Man(a1-6)[Man(a1-3)]Man(a1-6)[Man(a1-2)Man(a1-2)Man(a1-3)]Man(b1-4)GlcNAc(b1-4)GlcNAc
In short: as §1

[30] = biological target: Man(a1-3)[Man(a1-6)]Man
In short: as §1

[31] = biological target: Man(a1-3)[Man(a1-6)]Man(a1-6)[Man(a1-2)Man(a1-3)]Man(b1-4)GlcNAc(b1-4)GlcNAc
In short: as §1

[32] = biological target: Man(a1-3)[Man(a1-6)]Man(a1-6)[Man(a1-3)]Man
In short: as §1

[33] = biological target: Man(a1-3)[Man(a1-6)]Man(a1-6)[Man(a1-3)]Man(b1-4)GlcNAc(b1-4)GlcNAc
In short: as §1

[34] = biological target: Man(a1-3)[Man(a1-6)]Man(b1-4)GlcNAc(b1-4)GlcNAc
In short: as §1

[35] = biological target: Man(a1-3)[Man(a1-6)]Man(b1-4)GlcNAc(b1-4)[Fuc(a1-6)]GlcNAc
In short: as §1

[36] = biological target: Man(a1-6)Man
In short: as §1

[37] = biological target: Man(b1-4)GlcNAc
In short: as §1

[38] = biological target: MurNAc(b1-4)GlcNAc
In short: as §1

[39] = biological target: Neu5Ac(a2-3)Gal
In short: as §1

[40] = biological target: Neu5Ac(a2-3)Gal(b1-3)GalNAc
In short: as §1

[41] = biological target: Neu5Ac(a2-3)Gal(b1-3)GalNAc(b1-3)Gal(a1-4)Gal(b1-4)Glc
In short: as §1

[42] = biological target: Neu5Ac(a2-3)Gal(b1-3)GalNAc(b1-3)Gal(b1-4)GlcNAc
In short: as §1

[43] = biological target: Neu5Ac(a2-3)Gal(b1-3)GalNAc(b1-4)[Neu5Ac(a2-3)]Gal(b1-4)Glc
In short: as §1

[44] = biological target: Neu5Ac(a2-3)Gal(b1-3)GalNAc(b1-4)[Neu5Ac(a2-8)Neu5Ac(a2-3)]Gal(b1-4)Glc
In short: as §1

[45] = biological target: Neu5Ac(a2-3)Gal(b1-3)GalNAc6S
In short: as §1

B1: HHA (Hippeastrum hybrid) (protein)
chain: MQQDCNLVLYDVDKPIWASNTGGLARDCHLNMQSDGNLVVYAPRNQVIWASNTQGENGNYVCILQKDRNVVIYGTARWATGTNIHGAGIVGVPGSAPQNTTAEMIKLVRKYLITK
glycan array binding signal (z-score) [1]: -0.203
glycan array binding signal (z-score) [2]: -0.199
glycan array binding signal (z-score) [3]: -0.22
glycan array binding signal (z-score) [4]: -0.21
glycan array binding signal (z-score) [5]: -0.264
glycan array binding signal (z-score) [6]: -0.198
glycan array binding signal (z-score) [7]: -0.211
glycan array binding signal (z-score) [8]: -0.143
glycan array binding signal (z-score) [9]: -0.147
glycan array binding signal (z-score) [10]: -0.169
glycan array binding signal (z-score) [11]: -0.216
glycan array binding signal (z-score) [12]: -0.211
glycan array binding signal (z-score) [13]: -0.212
glycan array binding signal (z-score) [14]: -0.201
glycan array binding signal (z-score) [15]: -0.011
glycan array binding signal (z-score) [16]: -0.219
glycan array binding signal (z-score) [17]: -0.188
glycan array binding signal (z-score) [18]: -0.164
glycan array binding signal (z-score) [19]: -0.197
glycan array binding signal (z-score) [20]: -0.201
glycan array binding signal (z-score) [21]: 0.729
glycan array binding signal (z-score) [22]: 2.11
glycan array binding signal (z-score) [23]: 0.529
glycan array binding signal (z-score) [24]: 1.99
glycan array binding signal (z-score) [25]: 1.37
glycan array binding signal (z-score) [26]: 0.293
glycan array binding signal (z-score) [27]: 3.35
glycan array binding signal (z-score) [28]: 2.72
glycan array binding signal (z-score) [29]: 3.81
glycan array binding signal (z-score) [30]: 5.62
glycan array binding signal (z-score) [31]: 5.57
glycan array binding signal (z-score) [32]: 5.35
glycan array binding signal (z-score) [33]: 5.15
glycan array binding signal (z-score) [34]: 8.3
glycan array binding signal (z-score) [35]: 6.07
glycan array binding signal (z-score) [36]: -0.189
glycan array binding signal (z-score) [37]: -0.208
glycan array binding signal (z-score) [38]: -0.213
glycan array binding signal (z-score) [39]: -0.214
glycan array binding signal (z-score) [40]: 0.803
glycan array binding signal (z-score) [41]: -0.2
glycan array binding signal (z-score) [42]: -0.207
glycan array binding signal (z-score) [43]: -0.218
glycan array binding signal (z-score) [44]: -0.192
glycan array binding signal (z-score) [45]: -0.218
